Experimental findings from ChEMBL document CHEMBL4888484, “Replenishing the malaria drug discovery pipeline: Screening and hit evaluation of the MMV Hit Generation Library 1 (HGL1) against asexual blood stage Plasmodium falciparum ,using a nano luciferase reporter read-out” (2022) are described below.

The structures appear in SMILES notation. The campaign covered roughly 150,000 compounds. About 540 (0.36%) showed an effect of 50% or more. Some of the results follow.

For the test, the system named is Plasmodium falciparum. As to the kind of experiment: Primary screen in NF54 nanoGlo assay, in single point, at 2uM, 72h; a lower Z score goes with more inhibition. The note with it: timepoint 72 hour. Type of test: functional, Erythrocyte.
As to `Cc1nn(C)cc1C(=O)N(C(C)C)C1CC(C)(C)C1`, the “% Inhibition” value came to 32% and the Z score was -3.59.

For `C[C@]1(c2cc(F)ccc2F)NC(=O)N(Cc2ccc(Cl)s2)C1=O`, the “% Inhibition” value was 4% and the Z score is listed as -0.54.

As for `O=C(CN1CCN(c2ccc3c(c2)OCCO3)C1=O)Nc1ccc(C(F)(F)F)cc1`, the “% Inhibition” value came out at 0% and the Z score was determined as 0.07.

For the molecule `O=C(NCC1CCN(C(=O)c2ccc[nH]2)CC1)c1ccsc1`, the “% Inhibition” value was -22% and the Z score is 2.23.

For the molecule `OC[C@H]1CCN(c2nnc(-c3ccccc3)cc2C(F)(F)F)C1`, the “% Inhibition” value is reported as -2% and the Z score is 0.4.

Take `Cc1cc(NC(=O)[C@H]2CCC(=O)NC2)ccc1N1CCCC1=O`: the “% Inhibition” value is given as -4% and the Z score turned out to be 0.72.

As for `c1ccc(CN2CCCCC2)c(CNc2ccc3nccn3n2)c1`, the “% Inhibition” value is listed as -1% and the Z score is reported as 0.13.

On to `COc1cc(OC)cc(C(C(=O)O)N2CCC(c3ccccc3)C(C)C2)c1` (stereo not drawn), for which the “% Inhibition” value is -3% and the Z score was found to be 0.56.

Take `COc1ccc2c(c1)CC[C@H](C(=O)Nc1nccnc1C(C)C)C2`: the “% Inhibition” value is -2% and the Z score was determined as 0.34.

As to `O=C(NCc1nnc2c(-c3nc(C4CC4)no3)cccn12)C1CCCC1`, the “% Inhibition” value is on record as -11% and the Z score is reported as 2.2.

As for `CC[C@](C)(NCc1ccco1)c1nnnn1-c1ccc(Cl)cc1`, the “% Inhibition” value is reported as -11% and the Z score is 1.62.

Turning to `COc1ccc(C(=O)N2c3cc(CNC(=O)c4cccc(C)c4)ccc3C[C@@H]2C)cc1`, the “% Inhibition” value is 7% and the Z score is recorded as -0.83.

Regarding `COC(=O)c1ccc(NCC[C@H](C)NC(=O)OC(C)(C)C)c(C#N)n1`, the “% Inhibition” value is given as 0% and the Z score stood at 0.04.

With `c1ccc2c(c1)N=C(NC1CCCCC1)C1(CCCCCC1)N2`, the “% Inhibition” value was determined as 1% and the Z score is reported as -0.12.

As for `Cn1ncnc1CCNC(=O)[C@H]1CC[C@@H](O)CC1`, the “% Inhibition” value is on record as -2% and the Z score was determined as 0.27.

For `N#CC(NC(=O)C1CCc2[nH]nnc2C1)c1ccc(F)cc1` (stereo not drawn), the “% Inhibition” value amounted to 33% and the Z score is on record as -3.76.

As for `O=C(NCc1cccc(CN2CCCCCC2)c1)c1ccc(NS(=O)(=O)c2cccs2)cc1`, the “% Inhibition” value is reported as 0% and the Z score was -0.01.

Turning to `C[C@H](Oc1ccc(Cl)cc1Br)C(=O)Nc1ccccc1C(=O)NCc1ccco1`, the “% Inhibition” value is recorded as -28% and the Z score is recorded as 2.96.

As to `CCCCN(Cc1ccccc1)c1ccc(C(=O)O)cc1NS(=O)(=O)c1cccc(C)c1`, the “% Inhibition” value is recorded as -12% and the Z score worked out at 1.19.

Turning to `COc1ccc(-c2ccc(N3CCN(C(=O)CN(CCc4ccccc4)C(=O)c4cccc(F)c4)CC3)nn2)cc1OC`, the “% Inhibition” value was -10% and the Z score turned out to be 1.5.

Consider `CC(C)CN(Cc1cccnc1)C(=O)[C@@H](c1ccc2c(c1)OCO2)N(C)C`, for which the “% Inhibition” value is recorded as -23% and the Z score is reported as 2.28.

Take `O=C(CCN1CCN(c2ccccc2)CC1)Nc1ccc2c(c1)CCC2`: the “% Inhibition” value is -1% and the Z score was found to be 0.14.

Take `Cc1cc(CN2CC[C@@H](NC(=O)OC(C)(C)C)C2)no1`: the “% Inhibition” value was -12% and the Z score was found to be 1.77.

`Cc1cccc(-c2cc3n(n2)CCCN(C(=O)c2ccccn2)C3)c1`: the “% Inhibition” value is on record as 2% and the Z score was -0.26.

Take `Cc1cc(CN2CCN(C(=O)Nc3ccccc3N(C)C3CCCC3)CC2)on1`: the “% Inhibition” value was -9% and the Z score stood at 0.76.

Take `Cc1ccc(CN(C)C2CCCCC2)o1`: the “% Inhibition” value amounted to 39% and the Z score was -5.

As to `O=C(CS(=O)(=O)Cc1ccn(-c2ccccc2)n1)NC1CCCC1`, the “% Inhibition” value was 0% and the Z score was -0.01.

Regarding `Cc1noc(C)c1[C@@H](C)CNCc1ccccn1`, the “% Inhibition” value is given as -7% and the Z score turned out to be 0.76.

In the case of `COc1cccc(CNS(=O)(=O)c2c(C)sc(C)c2-c2ccno2)c1`, the “% Inhibition” value is -13% and the Z score amounted to 2.29.

Regarding `C[C@H]1C[C@@H](CO)CCN1Cc1cnc(-c2ccco2)s1`, the “% Inhibition” value is recorded as 4% and the Z score is reported as -0.47.

With `NS(=O)(=O)C[C@H]1CCN(C(=O)c2ccc(-c3noc(C4CC4)n3)cc2)C1`, the “% Inhibition” value was 8% and the Z score is listed as -1.64.

As for `CC(O)CCN(C)C(=O)NC(C)c1cc(F)c(F)c(F)c1` (stereo not drawn), the “% Inhibition” value is given as -8% and the Z score was found to be 0.68.

Regarding `CC(C)(C#N)c1ccc(C(=O)N2CCOCC23CCCC3)cc1`, the “% Inhibition” value worked out at 2% and the Z score is -0.21.

With `C[C@H]1C(=O)N(C)CCN1C(=O)NCc1cc(-c2ccccc2Cl)no1`, the “% Inhibition” value is recorded as -15% and the Z score is recorded as 1.7.

For `FC(F)(F)c1cccnc1OC[C@H]1CCCOC1`, the “% Inhibition” value came out at 1% and the Z score is listed as -0.15.

With `CC(C)(C)C1=NS(=O)(=O)c2c(CO)ccc(Cl)c21`, the “% Inhibition” value was -39% and the Z score is listed as 4.54.

Take `Cc1ncc(S(=O)(=O)NC(=O)C(C)(C)C)s1`: the “% Inhibition” value is listed as -35% and the Z score amounted to 4.06.

Take `Cc1cc(C)n(-c2ccc(COc3ccccc3C#N)cc2)n1`: the “% Inhibition” value is given as -7% and the Z score was found to be 1.11.

Turning to `COCCN(C)c1ccc(CNc2ccc3c(c2)COC3)cn1`, the “% Inhibition” value is reported as -7% and the Z score worked out at 0.84.

Regarding `COc1cc(CN2CC(c3nc(-c4cccc(C(F)(F)F)c4)no3)C2)cc(OC)c1`, the “% Inhibition” value is -8% and the Z score is 0.87.

Take `CC(C)(NCc1nccs1)c1ccccc1Br`: the “% Inhibition” value was -10% and the Z score turned out to be 1.35.

Turning to `Cc1ccc(-c2n[nH]c(NC(=O)[C@@H]3Cc4ccccc4O3)c2C)o1`, the “% Inhibition” value was -13% and the Z score is 1.83.

In the case of `COc1ccc(-c2c(C)noc2NC(C)=O)cc1S(=O)(=O)NCc1ccc(C)o1`, the “% Inhibition” value was 0% and the Z score was determined as 0.06.

As for `CCc1ccc(S(=O)(=O)Nc2cnc(Oc3ccccc3F)nc2)cc1`, the “% Inhibition” value was -3% and the Z score came out at 0.52.

Take `CON(C)Cn1nc(-c2c(C)cc(C)cc2C)oc1=S`: the “% Inhibition” value was -17% and the Z score is 2.51.

On to `O=C(NCC#CCOc1ccc2c(c1)OCO2)c1ccncc1`, for which the “% Inhibition” value is listed as -11% and the Z score amounted to 1.41.

Consider `COc1ccc(CCNC(=O)CN2CC(c3nc(C)no3)C2)cc1OC`, for which the “% Inhibition” value is recorded as 2% and the Z score was -0.41.

In the case of `O[C@H](c1ccccc1)C1(CNCc2ccccn2)CC1`, the “% Inhibition” value was -3% and the Z score turned out to be 0.41.

With `Cc1nc(CCCNc2ncc(Cl)cn2)n[nH]1`, the “% Inhibition” value was -9% and the Z score was determined as 0.94.

For `CC(C)[C@@H]1N(C(=O)NCCc2cn(C)cn2)CC1(C)C`, the “% Inhibition” value was 9% and the Z score is reported as -1.28.

Take `O=C(NCCc1ccc(OC(F)F)cc1)c1nccn2ccnc12`: the “% Inhibition” value is listed as -11% and the Z score is 1.5.

`CCCCc1nc(C)cc(NCc2cc(Br)cnc2N)n1`: the “% Inhibition” value is recorded as -33% and the Z score was 3.83.

As to `O=C(Cc1ccccc1)N1CCc2nc(N3CCCCC3)nc(Oc3ccc(F)c(F)c3)c2C1`, the “% Inhibition” value is -7% and the Z score came to 0.9.

As to `O=c1nc(CN2CCO[C@H](c3ccc(Cl)cc3)C2)[nH][nH]1`, the “% Inhibition” value is on record as -18% and the Z score was 2.47.
